Measured values from the supplement of paper PMC10126150.
Values marked as one replicate rest on one cluster of the flow cell; about a third of the high ones do not repeat.
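Also: ATP exposure 15 min at 22 °C before imaging.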

These sequences were tested on ATP (assay: switch fluorescence ratio, 500 uM ATP over buffer (Cy3 cluster intensity, sum of 5 cycles each) (fold (ratio)); higher = stronger signal-on switching upon ATP binding; sequences stand for … in TCGTCGGCAGCGTCAGATGTGTATAAGAGACAGTTTTTTTTTTTTTTTTTTTTTTTTT…TC). Details: aptamer strand: ATP DNA aptamer (quencher-CACCTGGGGGAGTATTGCGGAGGAAGG + anchor), 100 nM annealed; ATP concentration: 500 uM; one replicate.
Procedure, shortened: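 The quencher-labelled ATP aptamer, at 100 nM, was annealed to Cy3-labelled switching-strand clusters on a modified Illumina MiSeq flow-cell. The clusters were imaged in selection buffer, then after 15 min with 500 uM ATP at 22 °C, and this buffer/ATP cycle ran five times with NaOH stripping and re-annealing between runs. Per-cluster fluorescence ratios, summed target-cycle over summed buffer-cycle Cy3 intensity, were averaged per switch-domain sequence. Clusters outside 100-1000 RFU were excluded.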
AGCCTCGGCC showed a switch fluorescence ratio of 0.998. AGCCTCGTTC gave a switch fluorescence ratio of 1.01. With AGCCTGACTA the switch fluorescence ratio was 1.07. For AGCCTGGGTA, the switch fluorescence ratio was 0.987. With AGCCTTTGAG the switch fluorescence ratio was 0.958. Work on AGCGAACCGG yielded a switch fluorescence ratio of 0.981. Sequence AGCGAGAAGG has a switch fluorescence ratio of 0.956. Sequence AGCGAGAGCC has a switch fluorescence ratio of 0.999. With AGCGATACCT the switch fluorescence ratio was 1.37. With AGCGATGCCC the switch fluorescence ratio was 1.01. For AGCGATGTTA, the switch fluorescence ratio was 0.999. In the case of AGCGATGTTG, the switch fluorescence ratio is reported as 0.961. In the case of AGCGCAGATA, the switch fluorescence ratio is reported as 1.01. For AGCGCCATGG, the switch fluorescence ratio was 0.982. Work on AGCGCTAAGG yielded a switch fluorescence ratio of 1.02. For AGCGGAAAAT, the switch fluorescence ratio was 1.03. Work on AGCGGACAAG yielded a switch fluorescence ratio of 0.982. In the case of AGCGGACCTT, the switch fluorescence ratio is reported as 1.26. Sequence AGCGGCAAAA has a switch fluorescence ratio of 0.999. AGCGGCAGGG gave a switch fluorescence ratio of 1.02. With AGCGGCGGAG the switch fluorescence ratio was 0.964. Work on AGCGGGAATT yielded a switch fluorescence ratio of 0.909. Sequence AGCGGGCTCG has a switch fluorescence ratio of 1.04. Sequence AGCGGGTGAG has a switch fluorescence ratio of 0.995. In the case of AGCGGTCCGC, the switch fluorescence ratio is reported as 1.05. In the case of AGCGTATGTT, the switch fluorescence ratio is reported as 1.02. With AGCGTCACGG the switch fluorescence ratio was 1.04. In the case of AGCGTCGTAG, the switch fluorescence ratio is reported as 1.01. With AGCGTCTGAT the switch fluorescence ratio was 0.972. In the case of AGCGTGATTC, the switch fluorescence ratio is reported as 1.06. In the case of AGCGTGCGTG, the switch fluorescence ratio is reported as 0.988. AGCGTTGGGT showed a switch fluorescence ratio of 1.03. AGCTAAATC was tested, and the switch fluorescence ratio was 1.02. Work on AGCTACATCA yielded a switch fluorescence ratio of 1.04. Sequence AGCTAGAAGA has a switch fluorescence ratio of 1.04. In the case of AGCTAGGGAC, the switch fluorescence ratio is reported as 1.06. AGCTATAGCG gave a switch fluorescence ratio of 0.962. Work on AGCTCAAGT yielded a switch fluorescence ratio of 0.98. For AGCTCACAAG, the switch fluorescence ratio was 1.01. Work on AGCTCATTTC yielded a switch fluorescence ratio of 0.998. Sequence AGCTCCTTGG has a switch fluorescence ratio of 1. Work on AGCTCGGGCG yielded a switch fluorescence ratio of 1.12. Work on AGCTCTGGGG yielded a switch fluorescence ratio of 0.998. For AGCTGACTTG, the switch fluorescence ratio was 1.02. Work on AGCTGATCCC yielded a switch fluorescence ratio of 1.05. Sequence AGCTGCACCG has a switch fluorescence ratio of 1.02. Work on AGCTGCGGCG yielded a switch fluorescence ratio of 0.986. Sequence AGCTGCTAGA has a switch fluorescence ratio of 1.02. For AGCTGGTTA, the switch fluorescence ratio was 1.05. Sequence AGCTGTCCGT has a switch fluorescence ratio of 0.991. With AGCTGTTCTC the switch fluorescence ratio was 1.06. Work on AGCTGTTTAA yielded a switch fluorescence ratio of 0.981. AGCTTATAAA was tested, and the switch fluorescence ratio was 1.04. AGCTTCATCC was tested, and the switch fluorescence ratio was 2.38. In the case of AGCTTCCGAT, the switch fluorescence ratio is reported as 2.87. In the case of AGCTTCTGC, the switch fluorescence ratio is reported as 0.992. AGCTTGAGTT showed a switch fluorescence ratio of 0.93. AGCTTGCGGC was tested, and the switch fluorescence ratio was 0.992. For AGCTTGGATC, the switch fluorescence ratio was 1. With AGCTTGGTCT the switch fluorescence ratio was 1.04. Work on AGCTTTAGTC yielded a switch fluorescence ratio of 1.06. With AGCTTTGATC the switch fluorescence ratio was 1.03. AGGAAAAAAT showed a switch fluorescence ratio of 1.01. AGGAAAAATC was tested, and the switch fluorescence ratio was 1.02. AGGAAATCGT gave a switch fluorescence ratio of 0.964. Work on AGGAACACGA yielded a switch fluorescence ratio of 1.03. AGGAAGAGG showed a switch fluorescence ratio of 0.956. AGGAAGGCTT showed a switch fluorescence ratio of 1.08. AGGAAGTGAC gave a switch fluorescence ratio of 1.01. In the case of AGGAAGTTTC, the switch fluorescence ratio is reported as 0.991. AGGAATCAAA gave a switch fluorescence ratio of 0.961. Work on AGGACACGTT yielded a switch fluorescence ratio of 1.12. Sequence AGGACAGGCT has a switch fluorescence ratio of 0.983. AGGACAGTAT showed a switch fluorescence ratio of 0.998. Sequence AGGACCCACT has a switch fluorescence ratio of 1.26. In the case of AGGACGCAGA, the switch fluorescence ratio is reported as 1.24. AGGACGTGTT gave a switch fluorescence ratio of 1. Sequence AGGACTTCAT has a switch fluorescence ratio of 1.02. AGGAGATTTC was tested, and the switch fluorescence ratio was 1.07. AGGAGCAATG gave a switch fluorescence ratio of 3.28. Work on AGGAGCCGGT yielded a switch fluorescence ratio of 1.03. AGGAGCCTTA was tested, and the switch fluorescence ratio was 1.06. With AGGAGCGGCT the switch fluorescence ratio was 0.991. For AGGAGCTAGG, the switch fluorescence ratio was 0.997. With AGGAGTGTG the switch fluorescence ratio was 1.01. With AGGATATTTG the switch fluorescence ratio was 1.04. Work on AGGATCCAGG yielded a switch fluorescence ratio of 1.14. AGGATCTGCG gave a switch fluorescence ratio of 0.948. With AGGATCTTCC the switch fluorescence ratio was 1. Work on AGGATGACGT yielded a switch fluorescence ratio of 0.924. Work on AGGATGCAA yielded a switch fluorescence ratio of 1.09. In the case of AGGATGGTGC, the switch fluorescence ratio is reported as 1.01. AGGATTAGAA showed a switch fluorescence ratio of 0.99. For AGGATTTCCG, the switch fluorescence ratio was 0.977. In the case of AGGATTTGCT, the switch fluorescence ratio is reported as 0.999. AGGCAACTCA showed a switch fluorescence ratio of 1.04. Sequence AGGCACCGTC has a switch fluorescence ratio of 1.02. In the case of AGGCACTGGG, the switch fluorescence ratio is reported as 1.02. AGGCAGCG gave a switch fluorescence ratio of 1.03. In the case of AGGCATACTT, the switch fluorescence ratio is reported as 1.09. AGGCATGACA gave a switch fluorescence ratio of 0.98. Work on AGGCATTTGG yielded a switch fluorescence ratio of 0.991. For AGGCCACGCC, the switch fluorescence ratio was 1.66. With AGGCCATTTA the switch fluorescence ratio was 1. AGGCCTGGGG was tested, and the switch fluorescence ratio was 0.957. Sequence AGGCCTGTAT has a switch fluorescence ratio of 1.01. With AGGCGAAAGT the switch fluorescence ratio was 1.04. For AGGCGAAGTA, the switch fluorescence ratio was 1.02. With AGGCGCGAAG the switch fluorescence ratio was 1.02. In the case of AGGCGCGGGA, the switch fluorescence ratio is reported as 1.02. In the case of AGGCGTCCTG, the switch fluorescence ratio is reported as 1.02. With AGGCTATCAT the switch fluorescence ratio was 0.933. With AGGCTATGGA the switch fluorescence ratio was 0.953. AGGCTCAACT gave a switch fluorescence ratio of 1. Sequence AGGCTGAA has a switch fluorescence ratio of 1.02. In the case of AGGCTGAATC, the switch fluorescence ratio is reported as 0.982. For AGGCTGCAGA, the switch fluorescence ratio was 1.02. In the case of AGGCTGCATC, the switch fluorescence ratio is reported as 1.11. Work on AGGCTGCTG yielded a switch fluorescence ratio of 0.959. With AGGCTGGCT the switch fluorescence ratio was 0.977. Work on AGGCTGTGTA yielded a switch fluorescence ratio of 0.999. AGGCTGTTGT gave a switch fluorescence ratio of 0.99. In the case of AGGCTTCCGG, the switch fluorescence ratio is reported as 1.1. AGGCTTGGCG gave a switch fluorescence ratio of 1.06. In the case of AGGGAATCTG, the switch fluorescence ratio is reported as 0.982. AGGGAATTGC was tested, and the switch fluorescence ratio was 1.01. Sequence AGGGACCGAT has a switch fluorescence ratio of 0.986. In the case of AGGGACTATG, the switch fluorescence ratio is reported as 1.01. AGGGAGAAAG was tested, and the switch fluorescence ratio was 0.974. For AGGGAGCCTT, the switch fluorescence ratio was 0.993. In the case of AGGGAGGCAT, the switch fluorescence ratio is reported as 1.06. Sequence AGGGAGGCTG has a switch fluorescence ratio of 1.11. AGGGAGGGCA gave a switch fluorescence ratio of 1.01. With AGGGATCAG the switch fluorescence ratio was 1.02. Work on AGGGATCCTG yielded a switch fluorescence ratio of 0.983. For AGGGATTAAG, the switch fluorescence ratio was 0.97. With AGGGCAATCC the switch fluorescence ratio was 1.33. In the case of AGGGCACCCC, the switch fluorescence ratio is reported as 0.966. AGGGCATAAA gave a switch fluorescence ratio of 1.02. With AGGGCGGAAG the switch fluorescence ratio was 0.965. For AGGGCGTA, the switch fluorescence ratio was 1.03. AGGGCTCAGC gave a switch fluorescence ratio of 1.1. AGGGCTCATC showed a switch fluorescence ratio of 0.994. For AGGGCTCATT, the switch fluorescence ratio was 0.968. Sequence AGGGCTGTAT has a switch fluorescence ratio of 1.25. AGGGCTTTTT showed a switch fluorescence ratio of 0.981. For AGGGGATTTA, the switch fluorescence ratio was 0.945. With AGGGGCAATC the switch fluorescence ratio was 3.02. AGGGGCATCC showed a switch fluorescence ratio of 1.03. AGGGGCTCAG was tested, and the switch fluorescence ratio was 1.03. In the case of AGGGGGACCG, the switch fluorescence ratio is reported as 1.09. AGGGGGACTA gave a switch fluorescence ratio of 1.05. For AGGGGGTTCA, the switch fluorescence ratio was 1.02. In the case of AGGGGTAACA, the switch fluorescence ratio is reported as 1.05. With AGGGGTACGG the switch fluorescence ratio was 0.996. Sequence AGGGGTCCCC has a switch fluorescence ratio of 0.993. Work on AGGGGTGACG yielded a switch fluorescence ratio of 1.17. For AGGGTAGACG, the switch fluorescence ratio was 1.1. Sequence AGGGTAGGAC has a switch fluorescence ratio of 1. For AGGGTCATTT, the switch fluorescence ratio was 1.03. Work on AGGGTCCGG yielded a switch fluorescence ratio of 1.06. AGGGTCTAAC gave a switch fluorescence ratio of 0.991. Work on AGGGTGCAGG yielded a switch fluorescence ratio of 0.993. In the case of AGGGTGCGGT, the switch fluorescence ratio is reported as 0.968. AGGGTGTTAC was tested, and the switch fluorescence ratio was 0.949. AGGGTTATCC was tested, and the switch fluorescence ratio was 1.06. AGGTAAACAA was tested, and the switch fluorescence ratio was 0.964. AGGTAACGAG was tested, and the switch fluorescence ratio was 1. AGGTAAGTG was tested, and the switch fluorescence ratio was 0.927. With AGGTAATGG the switch fluorescence ratio was 0.963. With AGGTACGCCA the switch fluorescence ratio was 1.03. AGGTACGGAT showed a switch fluorescence ratio of 0.957. Sequence AGGTACTGGT has a switch fluorescence ratio of 0.969. AGGTAGATTG showed a switch fluorescence ratio of 0.972. For AGGTAGGAGG, the switch fluorescence ratio was 1.02. Work on AGGTAGTACT yielded a switch fluorescence ratio of 1.05. AGGTATGTCC gave a switch fluorescence ratio of 1.05. For AGGTATTGTT, the switch fluorescence ratio was 0.989. AGGTCAAAAC was tested, and the switch fluorescence ratio was 0.963. AGGTCAATAG showed a switch fluorescence ratio of 1.33. AGGTCAATTG was tested, and the switch fluorescence ratio was 1.02. AGGTCAGGCT showed a switch fluorescence ratio of 1.04. AGGTCATAGC showed a switch fluorescence ratio of 0.976. Sequence AGGTCCACTT has a switch fluorescence ratio of 0.982. Sequence AGGTCCTTAA has a switch fluorescence ratio of 0.983. AGGTCCTTCG gave a switch fluorescence ratio of 1.12. Work on AGGTCGACCG yielded a switch fluorescence ratio of 0.982. For AGGTCGCGTG, the switch fluorescence ratio was 1.04. AGGTCGTGCA gave a switch fluorescence ratio of 0.99. For AGGTCTGGAC, the switch fluorescence ratio was 1.01. In the case of AGGTCTTTAT, the switch fluorescence ratio is reported as 0.963. AGGTGAAACG showed a switch fluorescence ratio of 1.02. AGGTGAGTGG showed a switch fluorescence ratio of 0.983. In the case of AGGTGCACAG, the switch fluorescence ratio is reported as 1.01. Work on AGGTGCATCA yielded a switch fluorescence ratio of 0.937. AGGTGCCCCG gave a switch fluorescence ratio of 1. In the case of AGGTGCTAAA, the switch fluorescence ratio is reported as 0.969. AGGTGCTGC gave a switch fluorescence ratio of 1.02. Sequence AGGTGGACCT has a switch fluorescence ratio of 1.09. For AGGTGGCGCT, the switch fluorescence ratio was 1.01. AGGTGGTGCA gave a switch fluorescence ratio of 1.02.
